The other results are listed elsewhere or left out. For some assays here: At the low end of the ranking the order means little. For some assays here: Measured with an extract: partners may take part in the binding.

In the first assay the target is PU.1 (IVT) (UniProt P17947). Kind of assay: protein-binding microarray (PBM). As to conditions: 20 mM HEPES pH 7.9, 100 mM NaCl, 1 mM DTT, 0.2 mg/mL BSA, 0.02% Triton X-100, 2% milk, 0.4 mg/mL salmon testes DNA; 1 h; temperature not stated; high values mean tight binding; double strand, one strand shown; sequences stand for … in GCCTAGCAC…GTGCTAGGTCTTGATTCGCTTGACGCTGCTG
As to AAATAAAGGAAGTGTGCTGC, the binding signal came to 4.45 z-score.

Take CTAAGAAGGAAGTGCTGACA: the binding signal stood at 3.02 z-score.

As for AAAAAGAGGAACTGAATGTC, the binding signal stood at 7.27 z-score.

Turning to AAAAACAGGAAGTCCCATAG, the binding signal came to 7.88 z-score.

Regarding CGAAAGGGAAAGTGCTAAAC, the binding signal was 0.333 z-score.

Regarding TGTAAAAGGAAGTCAGCTGA, the binding signal was determined as 2.69 z-score.

In the case of CAAATGAGGAAATGGAACAG, the binding signal was 4.08 z-score.

GGAAACAGGAAGTCCCATAG displayed a binding signal of 6.35 z-score.

Regarding TGAAAGAGGAATTGCAACCA, the binding signal came to 2.04 z-score.

Consider CTCATGGGGAAGTGAGCTCT, for which the binding signal came out at 4.16 z-score.

In the case of AAAGGGAGGAAGTGGTTGAA, the binding signal is 4.01 z-score.

Sequence AAAAAGAGGAAGTAGAGAAC returned a binding signal of 8.97 z-score.

The sequence AGGAAGGGGAAGTGCCGGGC gave a binding signal of 4.95 z-score.

Regarding GCAGAGGGGAAGTGACATCT, the binding signal worked out at 4.04 z-score.

With CAAGTGAGGAACTGATGCGG, the binding signal was 2.17 z-score.

Sequence TGAATGAGGAAGTCTTACTA displayed a binding signal of 6.39 z-score.

ACAAAGAGGAAGTCCCCAAA: the binding signal is 6.47 z-score.

As to GGAAGGGGGAAGTGGGCCAG, the binding signal came out at 4.38 z-score.

In turn, GGGAGGAGGAAGTGCTCTTG yielded a binding signal of 4.7 z-score.

Sequence GAAAAGAGGAAGAGTCTTAG returned a binding signal of 5 z-score.

Sequence AGAATGAGGAAGTCATCACA displayed a binding signal of 7.57 z-score.

In turn, CAAAAGAGGAACTGGATGGT showed a binding signal of 6.98 z-score.

On to CAAGGAGGGAAGTGGGAATG, for which the binding signal was 2.53 z-score.

Turning to AAAATGGGGAAGTCTAAAAT, the binding signal was 6.67 z-score.

The sequence TTAAAGGGGAAGTGTCATGT showed a binding signal of 5.67 z-score.

GAAAACGGGAAGTCCCATAG came in with a binding signal of 6.77 z-score.

For the sequence CTGGAGAGGAACTGAGTGCC, the binding signal worked out at 1.61 z-score.

TGATAGAGGAAGTAGTAGCT registered a binding signal of 5.87 z-score.

In turn, AGAATGAGGAAATGACAGTC registered a binding signal of 4.33 z-score.

As for TGAACAAGGAAGTGAGGCAT, the binding signal stood at 2.88 z-score.

TGAAAAAGGAAGTGCAACCA showed a binding signal of 4.61 z-score.

CGAAAGGAGAAGTGCTAAAC displayed a binding signal of 4.02 z-score.

CCTGGGAGGAAGTGGGTGCC yielded a binding signal of 3.33 z-score.

CACATGAGGAACTGATGCGG gave a binding signal of 2.94 z-score.

On to TAGAAGAGGAAGTGAGAGAC, for which the binding signal turned out to be 5.64 z-score.

AAAAAAGGGAACTGGCTAGA gave a binding signal of 5.22 z-score.

In turn, ATATTAAGGAAGTGCTGTGG returned a binding signal of 4.49 z-score.

In turn, CCTGTGAGGAAGTGGGGCAG gave a binding signal of 3.37 z-score.

As for AGAAGAAGGAAGTGAGAAAG, the binding signal came out at 4.17 z-score.

In turn, TAAAAGAGGAAGTGACCTCA had a binding signal of 7.82 z-score.

The target in the next assay is PU.1 (endogenous, THP-1 nuclear extract) (UniProt P17947). As to the kind of experiment: nuclear extract protein-binding microarray (nextPBM). As to conditions: 20 mM HEPES pH 7.9, 100 mM NaCl, 1 mM DTT, 0.2 mg/mL BSA, 0.02% Triton X-100, 2% milk, 0.4 mg/mL salmon testes DNA; 1 h; temperature not stated; high values mean tight binding; double strand, one strand shown; sequences stand for … in GCCTAGCAC…GTGCTAGGTCTTGATTCGCTTGACGCTGCTG
On to AAATAAAGGAAGTGTGCTGC, for which the binding signal was 4.36 z-score.

For CTAAGAAGGAAGTGCTGACA, the binding signal was found to be 2.83 z-score.

AAAAAGAGGAACTGAATGTC came in with a binding signal of 7.14 z-score.

The sequence AAAAACAGGAAGTCCCATAG yielded a binding signal of 7.1 z-score.

In the case of CGAAAGGGAAAGTGCTAAAC, the binding signal was 0.14 z-score.

In turn, TGTAAAAGGAAGTCAGCTGA registered a binding signal of 2.54 z-score.

CAAATGAGGAAATGGAACAG: the binding signal stood at 4.73 z-score.

GGAAACAGGAAGTCCCATAG came in with a binding signal of 6.83 z-score.

TGAAAGAGGAATTGCAACCA came in with a binding signal of 2.06 z-score.

In turn, CTCATGGGGAAGTGAGCTCT returned a binding signal of 4.33 z-score.

As for AAAGGGAGGAAGTGGTTGAA, the binding signal was found to be 3.45 z-score.

As for AAAAAGAGGAAGTAGAGAAC, the binding signal is 7.28 z-score.

The sequence AGGAAGGGGAAGTGCCGGGC came in with a binding signal of 6.2 z-score.

GCAGAGGGGAAGTGACATCT showed a binding signal of 4.32 z-score.

Take CAAGTGAGGAACTGATGCGG: the binding signal worked out at 1.87 z-score.

As for TGAATGAGGAAGTCTTACTA, the binding signal came out at 6.42 z-score.

Sequence ACAAAGAGGAAGTCCCCAAA registered a binding signal of 6.79 z-score.

GGAAGGGGGAAGTGGGCCAG: the binding signal is 4.98 z-score.

As for GGGAGGAGGAAGTGCTCTTG, the binding signal was found to be 5.14 z-score.

GAAAAGAGGAAGAGTCTTAG gave a binding signal of 5.65 z-score.

With AGAATGAGGAAGTCATCACA, the binding signal was determined as 7.22 z-score.

Sequence CAAAAGAGGAACTGGATGGT yielded a binding signal of 6.8 z-score.

As to CAAGGAGGGAAGTGGGAATG, the binding signal was 2.56 z-score.

Sequence AAAATGGGGAAGTCTAAAAT had a binding signal of 6.84 z-score.

Consider TTAAAGGGGAAGTGTCATGT, for which the binding signal turned out to be 6.26 z-score.

GAAAACGGGAAGTCCCATAG showed a binding signal of 7.03 z-score.

In turn, CTGGAGAGGAACTGAGTGCC showed a binding signal of 1.92 z-score.

The sequence TGATAGAGGAAGTAGTAGCT came in with a binding signal of 6.24 z-score.

In the case of AGAATGAGGAAATGACAGTC, the binding signal came out at 4.88 z-score.

As for TGAACAAGGAAGTGAGGCAT, the binding signal turned out to be 3.19 z-score.

TGAAAAAGGAAGTGCAACCA registered a binding signal of 4.62 z-score.

Take CGAAAGGAGAAGTGCTAAAC: the binding signal was 4.63 z-score.

As to CCTGGGAGGAAGTGGGTGCC, the binding signal turned out to be 3.23 z-score.

CACATGAGGAACTGATGCGG gave a binding signal of 2.72 z-score.

The sequence TAGAAGAGGAAGTGAGAGAC registered a binding signal of 6.16 z-score.

Turning to AAAAAAGGGAACTGGCTAGA, the binding signal turned out to be 5.79 z-score.

Take ATATTAAGGAAGTGCTGTGG: the binding signal was determined as 4.49 z-score.

Sequence CCTGTGAGGAAGTGGGGCAG displayed a binding signal of 3.63 z-score.

The sequence AGAAGAAGGAAGTGAGAAAG returned a binding signal of 4.23 z-score.

Sequence TAAAAGAGGAAGTGACCTCA showed a binding signal of 7.44 z-score.

(Values after publication PMC6451091.)
